Self-cleavage data for 167 variants are collected here from the RNAGym collection of RNA variant scans (doi:10.7554/elife.90254).

Sequences and labels used below:
B1: LINE1-full (parent)
chain: UACGUAGGUGGUUUUCCCCUGAUAGUGCUAAGGGGGCCUGGAAGUUUGGACUGGGCAGAGCUCAACACAGCGUGGCAAAGUGGCUGUGGCUAGACUGCCUCUCUGGAUUCCUCGUCACUCAGCAGGGCAUCUCUGAGAGAAAUGCC

Read counts are not given, so values of variants with three or more changes are uncertain.

Variants of B1 are the subject of this series. Description: self-cleavage, relative activity (ratio to wild type); higher = more cleavage; in vitro, sequencing; the parent is a self-cleaving ribozyme.
In the case of U39C A50G A65U, the self-cleavage amounted to 0.17. Turning to G35A A42G U62C A141G, the self-cleavage turned out to be 0.05. Take U39C A124U U130C U134A: the self-cleavage turned out to be 0.75. Take U39C A65U A77G: the self-cleavage was found to be 0.25.

As for C37U A57U A79G A129G, the self-cleavage is 0.12. In the case of U39C A50U A78G, the self-cleavage is 0.3. With U39C A59G U100C A121G C128A, the self-cleavage is 0.3. For G35A A69G A79G, the self-cleavage was found to be 0. In the case of C38U U73C U112C A136G, the self-cleavage was found to be 0.78. As to C38U G80A A140U, the self-cleavage is 1.97. For the variant U39A U46A A67G U100C A107U, the self-cleavage stood at 0.51. As to U39A U112A U143A, the self-cleavage stood at 1.39. The result for U39C A94G A124G reads 0.

On to U39C U109C A136G A140G U143A, for which the self-cleavage was determined as 0.62.

Consider U39A U52A A65U G72A U130C, for which the self-cleavage worked out at 0.13. The figure for U39A A42G U96C C111U is 0.07. U39C G53A A129U U134G: the self-cleavage worked out at 1.22. The figure for G40A A67U U96A A140G is 0.02. The result for G36U U39A A64G U85C A92G reads 0. As for U39C A69U U91C G105A, the self-cleavage is 0.04.

Take U39C A57G A92G: the self-cleavage worked out at 0.

As for C37G U109C U115A, the self-cleavage amounted to 0.74. As for U39A A65U A92C A141G, the self-cleavage came to 0.12. U39C U62C A79U A138G: the self-cleavage was 0.03. Take G35A U45A U46A: the self-cleavage was found to be 0.76.

Regarding U39A A67U A121G, the self-cleavage was determined as 0.22. The figure for G35A U39A A141G is 1.03; for U39C A121U A136U it is 0.98; for G40A U47C A64G A129G it is 0.17.

In the case of G36A A64G U108C, the self-cleavage stood at 0.29. U39C A94G A107U: the self-cleavage was 0. As for C38U A138G C146A, the self-cleavage was 1.4. Turning to U39C U62A A79G, the self-cleavage was 0.09.

Turning to U39C U45C G54A, the self-cleavage was 0.77. As to U39C C145A C146U, the self-cleavage is 0.67. For the variant U39C U104C A124U, the self-cleavage was determined as 1.44. Turning to U39A A64U U130C, the self-cleavage turned out to be 0.43. Regarding C38U U46C A67G U87C, the self-cleavage was 1.72. With G40A G58U A121U U132C, the self-cleavage was found to be 0.03. U39A U47A U130C: the self-cleavage was 1.27.

U39A A42G G86A: the self-cleavage worked out at 0.05. G36A U45C C76U: the self-cleavage was 2.34. Turning to C37G U96C U119C, the self-cleavage amounted to 0. With U39C A42G U47C, the self-cleavage was determined as 0.48. As for U39C U52C A64G, the self-cleavage is 0.44. For U39C U46C G88A, the self-cleavage turned out to be 0.1. As to U39A U104G A141G, the self-cleavage came out at 1.2.

Consider U39A A107G U119C U130C, for which the self-cleavage turned out to be 0.4. The result for U39C U96A U104C U119A reads 0; that for G35U A65G U96A, 0.02. As for G35A G36A U45C U62C A138G, the self-cleavage was found to be 0.02.

Take G35C U46C U96C U130C A142G: the self-cleavage turned out to be 0. For the variant C37A A64G A67U A69C, the self-cleavage is 0.03. Take U39A A42G U47A: the self-cleavage is 0.54. With U39A U73C C90U, the self-cleavage stood at 0.06. The figure for C38A A117U A121G is 1.43; for C38U U45C U52A it is 1.01. Take U39A U73A U115C C145G: the self-cleavage was 1.84. The result for U39G A57G U132C reads 1.02; that for U39A A124U U134G, 1.75; that for G36U A59G A138G, 0.06. Consider G36A A77G A142G, for which the self-cleavage was 2.16. Consider U39A A42G U143C, for which the self-cleavage amounted to 1.55. As for U39C U62C A78G U96A, the self-cleavage was found to be 0.04. The result for C37G A42G U108C reads 1.5; that for U39A C63A U100C A142G, 0.07; that for G36A A57C U108C A141G C146U, 0.11.

For the variant U39C U62C U112C, the self-cleavage was 0. For the variant G40C U115C A136G, the self-cleavage stood at 1.11. The figure for U39C U45C A69C A78G is 0; for C37A A50G A65U U115A it is 0.1. Consider G35A C71U A107G, for which the self-cleavage was 0.85. With G40A A59U G72A A121U A141U, the self-cleavage came to 0.55. In the case of U39A U62C C76A A77G, the self-cleavage came out at 0.02.

For the variant G36A A78U U104C, the self-cleavage came out at 2.47. For U39A U46C U62C, the self-cleavage was 0.04. For U39C G40U U109C, the self-cleavage amounted to 1.6. For U39A G49U U100C, the self-cleavage turned out to be 1.21. The figure for U39C U87C U143C is 0.23; for U39A U62A A138U A140G it is 0.03. For C38U U39C A64C U130C, the self-cleavage amounted to 0.26. As for U39C G48A U109C, the self-cleavage came to 0.66. The figure for U39G U46C A64U U104C is 0.45; for U39A A94G A142G it is 0.17; for U39A U62A A69G U108C A117U it is 0. As to C37U A50G A57G A77G U115C, the self-cleavage stood at 0.

For the variant U39C U96C U109A, the self-cleavage worked out at 0. As to U39C A92U A107G, the self-cleavage came to 0. With U39C U85A U96C, the self-cleavage turned out to be 0.09.

For the variant G34U C99U U100C U104A, the self-cleavage was found to be 1.05. The figure for U39C A142G U143A is 1.18; for G35U U39A U85C C113U it is 0.11; for C37A A69G C113U A138G it is 0.36. The result for C38A G80U U87A C103U reads 0.04; that for U39A A124G U130C, 2.47. Take G36A U46C U87C: the self-cleavage worked out at 0.06. For the variant U39C A77G U112C U134C, the self-cleavage came out at 1.31.

As to G35U C101U A129G, the self-cleavage turned out to be 1.24. The figure for U39C A78G U108C is 1.15; for G34U A124G A140G it is 0.2; for G36A A57G U62C A64G U130C it is 0. On to G36U A77G A107G, for which the self-cleavage was 2.17. As to G40A U47A A94G U96A, the self-cleavage was 0.06. As for C37U A50U U52C U143A, the self-cleavage is 1.13.

U39A A69G C71A: the self-cleavage came to 0.05. As for U39A A77U A78G C145U, the self-cleavage is 0.77. With C38A U52C A65G A79G, the self-cleavage came out at 0.31. With C38U U47C U73A A79G, the self-cleavage was found to be 1.43. The result for C37U A65G U132C reads 0.03; that for U39C A43G A69G U132A, 0; that for G34U G72A U108C, 0.44.

With U39A C90U U91C U108C, the self-cleavage stood at 0. On to U39A U96C A141G, for which the self-cleavage amounted to 0. With U39C G48A A69U A79U, the self-cleavage was 0.03. The figure for G40A U46C A136G A140G is 1.1. For the variant G36C U45A A129G, the self-cleavage is 1.02. With C37U U119C U130C, the self-cleavage was 1.95. As for C38U G58U G89A U104C, the self-cleavage came to 0.01. With C37U A78G U96A U104C A141G, the self-cleavage is 0.06.

Consider G36A A78G U102C A142G, for which the self-cleavage turned out to be 0.79.

Take C38U G82A C99U A142G: the self-cleavage amounted to 1.2. Take G34U A79G U96C: the self-cleavage worked out at 0.27. The figure for U39C A64G A67U G74A A77G A117U A124U A129C is 0; for G36C U52C G60C A64G A67U U96A U104C U130C it is 0; for U39C U96C A117U it is 0.06.

Regarding G35A U62C A136G, the self-cleavage is 0.02. As to U39C A64U A124U A140G, the self-cleavage was 0.31. As for G36C U62C A124G, the self-cleavage turned out to be 0.

In the case of U39A U45C A57G U85G U102A, the self-cleavage was determined as 0. The figure for G36U A64G A69G A79G is 0.07; for G34U U115C A136G it is 2.33. With U39A A129U A142G, the self-cleavage worked out at 2.51. Consider U39C U62C U85A, for which the self-cleavage turned out to be 0. The figure for U39G A43G U45A C110U U143A is 0.37; for U39C U62C U91A it is 0; for C37U U115C G126U it is 0.9. On to U39C A65G A77U, for which the self-cleavage amounted to 0.09.

In the case of U39A A65G A77G U91A A141G, the self-cleavage came out at 0.03. Regarding U39C A69U A78G, the self-cleavage was 0.07. For the variant U39C U46C G54C C76U, the self-cleavage was 0.96. As for U39A C56U A78U A79U G88U, the self-cleavage was determined as 0.04. The result for G36A A43G U109C U130C reads 2.83; that for C37U A92U U119C, 0.55. In the case of U39A A65C U109C A141G, the self-cleavage amounted to 0. Turning to U39A G93A A141G, the self-cleavage came to 0.03. Regarding C37U U46C U132C, the self-cleavage came out at 0.76. U39A U81G A94G A124G: the self-cleavage came to 0.37.

In the case of G35A A94G C113U, the self-cleavage was determined as 0.1. The figure for U39A G72A A79U A124G U143C is 1.23; for U39A U85A U134A it is 0.08; for G36U A42G U115A it is 1.44. In the case of C37A C95U A124G, the self-cleavage was 0.08. As for U39A U81G G88U U102C A124G A138U, the self-cleavage worked out at 0.07. For the variant G35A G54A U96A A142G U143C, the self-cleavage is 0.01. Turning to U39A G54U A138G, the self-cleavage worked out at 0.3.

Regarding U39A A57G G60A A69C U119A A121C, the self-cleavage was 0. Consider G40A A59G U100C U102C, for which the self-cleavage was 0.05.

Turning to U39C U45C G55A A138G A142G, the self-cleavage was found to be 0.47. As for G35A A94G A107G, the self-cleavage came to 0. With U39C U45G G72A G106A A117G, the self-cleavage is 1.7.

Turning to U39C A79U U87C A142G U143C, the self-cleavage turned out to be 0. Turning to C37A U73A U96A, the self-cleavage turned out to be 0.04. As for G35U A42G A65U A94U A136G, the self-cleavage amounted to 0.04. In the case of U39C A50C A142G, the self-cleavage was 1.15. With G36U G48A G49U, the self-cleavage is 1.84. Turning to C38U A65U U96C A107G, the self-cleavage stood at 0. On to C37G U46A A124G, for which the self-cleavage amounted to 0.85.
